# The whole screen tested about 5,400 compounds, of which about 190 (3.5%) showed an effect of 50% or more. This is one part of the list.
# System: Vero-E6
# Assay: primary screen, phospholipidosis by LipidTOX staining; higher = more effect of the substance
# Conditions: 10 µM
# Method in brief: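 Drug-induced phospholipidosis detected with HCS LipidTOX Red reagent in Vero-E6 cells. Compounds tested at 10 μM, with amiodarone (10 μM) as positive control and DMSO (0.1 v/v %) as vehicle.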
row,Compound,result_ITMP [%]
1,NC(=O)c1cc([N+](=O)[O-])cc([N+](=O)[O-])c1,-2.95
2,CC[C@H](C)[C@H](N)C(=O)O,-0.55
3,CC(=O)SC[C@@H](C)C(=O)N1CCC[C@H]1C(=O)N[C@@H](Cc1ccccc1)C(=O)O,-0.38
4,NC[C@@H]1O[C@H](C23CC4CC(CC(C4)C2)C3)Cc2c1ccc(O)c2O,-0.25
5,O=c1[nH]cnc2nc[nH]c12,-2.17
6,CCOc1nc2cccc(C(=O)O)c2n1Cc1ccc(-c2ccccc2-c2nnn[nH]2)cc1,4.44
7,O=C(O)[C@@H](S)[C@@H](S)C(=O)O,-5.93
8,C[C@@](Cc1ccc(O)c(O)c1)(NN)C(=O)O,-4.37
9,C=CC(=O)Nc1cccc(Oc2nc(Nc3ccc(N4CCN(C)CC4)cc3)ncc2Cl)c1,70.5
10,O=C(NCCCN1CCOCC1)c1cnn2c(-c3ccccc3)cc(-c3ccccc3)nc12,-1.74
11,Cn1c(=O)c2c(ncn2CC2OCCO2)n(C)c1=O,-5.28
12,Oc1cc2c(cc1O)C(c1ccccc1)CNCC2 (stereo not drawn),-1.04
13,CN(C)C/C=C/C(=O)Nc1cccc(C(=O)Nc2cccc(Nc3ncc(Cl)c(-c4c[nH]c5ccccc45)n3)c2)c1,1.73
14,CC(C)NC[C@@H](C(=O)N1CCN(c2ncnc3c2[C@H](C)C[C@H]3O)CC1)c1ccc(Cl)cc1,3.29
15,Cc1ccc([C@@H]2O[C@H](CO)[C@@H](O)[C@H](O)[C@H]2O)cc1Cc1ccc(-c2ccc(F)cc2)s1,2.27
16,CC(C)(C)c1cc(C(C)(C)C)c(NC(=O)c2c[nH]c3ccccc3c2=O)cc1O,-5.08
17,CC(=O)N(CC(O)CO)c1c(I)c(C(=O)NCCO)c(I)c(C(=O)NCC(O)CO)c1I (stereo not drawn),-7.35
18,CN1CCN(CC(=O)N2c3ccccc3C(=O)Nc3cccnc32)CC1,-4.07
19,Cc1cc(=O)n(-c2ccccc2)[nH]1,-1.09
20,Cc1cc(/C=c2/sc3nc4ccccc4n3c2=O)c(C)n1-c1ccccc1,-4.34
21,O=C([O-])C(O)C(O)C(O)C(O)CO (stereo not drawn),-6.08
22,CC1(C)[C@H]2CC[C@]1(C)[C@@H](O)[C@H]2O,-7.7
23,CCCCCCCCCCCCOS(=O)(=O)[O-],-3.59
24,CCCCCCCCCCCCCCCC[N+](C)(C)Cc1ccccc1,-3.16
25,CCOC(=O)[C@H]1O[C@@H]1C(=O)N[C@@H](CC(C)C)C(=O)NCCC(C)C,-5.05
26,Nc1ncnc2[nH]nc(Nc3ccc(F)cc3)c12,-1.75
27,Cn1cc[nH]c1=S,-2.34

# From publication PMC13083723 (Patterns, 2026)
